Laboratory results as given in PubChem BioAssay AID624417 (National Center for Advancing Translational Sciences (NCATS), 2012).
The whole screen tested about 410,000 compounds, of which about 6,400 (1.6%) were called active. Inconclusive results, whose numbers are uncertain, are shown with a selection of clear calls. The call rests on the fitted dose curve; in most records, active means well fitted inhibition curve with a large enough effect; inconclusive means small, poorly fitted or top-dose-only effect; inactive means no such curve, though single readings can be large or run the other way. Potencies of inconclusive entries are doubtful fits and often do not repeat.

What follows are compounds tested against Glucagon-like peptide 1 receptor (Homo sapiens) (UniProt P43220) (assay: qHTS of GLP-1 Receptor Inverse Agonists (Inhibition Mode)). Conditions: HEK293 GLP-1R CRE-luciferase, luminescence, 24 h, GLP-1R form is constitutively active; activity change, negative = inhibition: at 38.3 µM (top of the series) unless noted.
Chain of UniProt P43220 (P43220 whole entry, looked up): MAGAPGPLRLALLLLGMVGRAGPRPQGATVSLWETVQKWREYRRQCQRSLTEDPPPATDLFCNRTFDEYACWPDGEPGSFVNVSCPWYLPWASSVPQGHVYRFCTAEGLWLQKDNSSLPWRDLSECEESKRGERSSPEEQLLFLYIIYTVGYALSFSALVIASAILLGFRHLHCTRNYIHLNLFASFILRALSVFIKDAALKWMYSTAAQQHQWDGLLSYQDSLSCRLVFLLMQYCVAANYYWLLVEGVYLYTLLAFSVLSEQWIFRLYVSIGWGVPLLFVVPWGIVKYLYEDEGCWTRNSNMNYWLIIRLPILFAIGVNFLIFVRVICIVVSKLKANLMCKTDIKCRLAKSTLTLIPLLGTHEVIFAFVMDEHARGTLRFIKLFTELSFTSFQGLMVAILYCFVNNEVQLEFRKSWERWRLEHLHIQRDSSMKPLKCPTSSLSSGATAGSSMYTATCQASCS
Procedure, shortened: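 Constitutively active GLP-1R drives a cAMP-responsive luciferase in stably transfected HEK293 cells; test compounds are added after overnight (12 h) attachment and left 24 hr, and signal loss in luminescence marks inhibition.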
Further: nearly all actives have a fitted effect of over 55% in size.
On the % scale 0 is the no-effect control and ±100 the full control effect; potency means the concentration at half of the fitted maximal effect; tags describe the fitted curve by direction and shape.

Activity change, negative = inhibition, inactive:
O=C(CN1CCCCC1)Nc1ccc(NC(=O)c2ccc(Cl)cc2)cc1Cl -25.1%, Fc1cccc(NCc2ccccc2-c2nnc(-c3ccccc3Cl)o2)c1 23.1%, O=c1c2oc3ccccc3c2n(Cc2ccc(Cl)cc2)c(=O)n1Cc1ccc2c(c1)OCO2 -9.65%, CCC(C)NS(=O)(=O)c1ccc(N2CCCCS2(=O)=O)cc1 (stereo not drawn) -9.39%, COc1ccccc1NS(=O)(=O)c1ccc(Br)s1 -20.6%, Cc1ccc(C(=O)Nc2ccc(C(=O)O)cc2)cc1S(=O)(=O)Nc1ccccc1 -7.85%, CC(=O)c1ccc2c(c1)OCCOCCOCCOCCO2 4.52%, CCOc1ccc(CC(=O)NCCS(=O)(=O)N2CCN(c3ccc(OC)cc3)CC2)cc1 -7.93%, O=C(Nc1nnc([C@H]2C[C@H](O)[C@@H](CO)O2)s1)Nc1ccccc1C(F)(F)F 6.83%, Cc1c(C(=O)NCCc2ccc(Cl)cc2)cccc1-n1cnc2cccnc21 6.21%, O=c1c(-c2ccc(F)cc2)coc2cc(O)ccc12 57.7%, COC(=O)c1c(C)nc(C)c(C(=O)OC)c1-c1cccs1 16.6%, CC1CN(C(=O)COC(=O)c2cnc(Cl)c(Cl)c2)CC(C)O1 (stereo not drawn) 2.15%, COc1ccc(C)cc1NC(=O)c1ccc2nc(Cc3ccccc3)oc2c1 -12.1%, Cn1c(=O)oc2cc(S(=O)(=O)Nc3ccc(F)cc3)ccc21 6.79%

Potency, inconclusive:
CS(=O)(=O)N1N=C(c2ccc(Br)cc2)CC1c1cccs1 (stereo not drawn) 7.94 µM [inhibitor, single point], CCC(C)N(C(=O)CSc1nc(-c2cccs2)nc2ccccc12)C1CCS(=O)(=O)C1 (stereo not drawn) 5.62 µM [inhibitor, partial curve, poor fit], COc1cc(OC)cc(C(=O)NC(C(=O)N2CCc3ccccc3C2)C(C)C)c1 (stereo not drawn) 10 µM [inhibitor, partial curve, poor fit], CCOC(=O)[C@H]1[C@H]2COc3cc(OC)ccc3[C@@H]2N2C(=O)CN(Cc3ccc(Cl)cc3)C(=O)[C@@]12C 28.2 µM [inhibitor, single point], Cc1oc(-c2ccc(-c3ccccc3)cc2)nc1CN(CCO)C(C)C 6.31 µM [inhibitor, partial curve, poor fit], Cc1nn(CC(=O)NCC(C)c2ccccc2)c(=O)c2cc(-c3ccccc3)nn12 (stereo not drawn) 28.2 µM [inhibitor, single point], COc1ccc(Cn2c(=O)[nH]c3cc(C(=O)N4CCN(Cc5ccccc5)CC4)ccc3c2=O)cc1 14.1 µM [inhibitor, single point], Brc1ccc(N=NNc2ccccc2)cc1 28.2 µM [inhibitor, single point], CCOc1ccc(N(C)S(=O)(=O)c2ccc(-c3cc(C)no3)s2)cc1 2.82 µM [inhibitor, partial curve], COc1ccc(NS(=O)(=O)c2ccc3oc(SCc4ccc(F)cc4)nc3c2)cc1 7.94 µM [inhibitor, partial curve, poor fit], CCn1c2ccccc2c2cc(CN3CCN(Cc4ccc(OC)c(OC)c4)CC3)ccc21 11.2 µM [inhibitor, single point], Cc1ccc(C)c(OCCC(=O)N2CCN(S(=O)(=O)c3cc(F)ccc3F)CC2)c1 10 µM [inhibitor, partial curve, poor fit], Cc1cc(C(=O)N2CCc3c([nH]c4ccccc34)C2c2cccc(Cl)c2)nn1C (stereo not drawn) 31.6 µM [inhibitor, partial curve, poor fit], COCCNC(=S)N/N=C(\C)c1ccc(Cl)c(Cl)c1Cl 3.16 µM [inhibitor, full curve, poor fit], COc1cc(/C=C2/SC(=S)N(CCC(=O)Nc3ccc(C(=O)O)cc3)C2=O)cc(OC)c1OC 8.91 µM [inhibitor, partial curve, poor fit], Cc1ccc(O)c(NC(=O)CCC2CCCCC2)c1 28.2 µM [inhibitor, single point], Cc1ccc(N(CC(O)Cn2nc(C)cc2C)S(=O)(=O)c2ccc3ccccc3c2)cc1 (stereo not drawn) 10 µM [inhibitor, single point], O=C(NC12CC3CC(CC(C3)C1)C2)c1cccc([N+](=O)[O-])c1 11.2 µM [inhibitor, partial curve, poor fit], Cc1nn(-c2ccccc2)c(N)c1Sc1ccc([N+](=O)[O-])cc1 31.6 µM [inhibitor, single point], C/C(=N\NC(=S)NCCc1ccccc1)c1ccc(C)cc1 7.08 µM [inhibitor, partial curve, poor fit], CCc1noc(C)c1C(=O)Nc1nc(-c2ccc(NC(C)=O)cc2)cs1 28.2 µM [inhibitor, single point], CC1N(C)c2cc(NC(=O)c3cccs3)c(P(=O)(Nc3ccc([N+](=O)[O-])cc3)N3CCOCC3)cc2C1(C)C (stereo not drawn) 10 µM [inhibitor, partial curve, poor fit], FC(F)(F)c1ccc(N2CCN(Cc3ccc4c(c3)OCO4)CC2)nc1 15.8 µM [inhibitor, single point], CCOc1ccc(/C=N/N2CCN(Cc3ccccc3)CC2)cc1 1.78 µM [inhibitor, partial curve, poor fit], CC(C)N(Cc1nc(-c2ccc(Cl)cc2)no1)C(=O)CN(C)S(=O)(=O)c1ccc(Cl)cc1 3.55 µM [inhibitor, partial curve, poor fit], Cc1ccc(CNC(=O)c2c(-c3ccc(Br)cc3)noc2C)o1 20 µM [inhibitor, single point]

Potency, active:
Cc1nn2c(N3CCN(C)CC3)cc(C(C)(C)C)nc2c1-c1ccccc1 7.08 µM, O=C(CNC(c1ccccc1)c1ccccc1)NCc1ccccc1Cl 10 µM
